Laboratory results as given in article PMC4336329 (PLoS ONE, 2015).
Among all 310,000 compounds or so, about 14,000 (4.5%) showed an effect of 50% or more. The effect is printed as a negative number. The list shows a part of the results.

target: human ether-à-go-go-related gene (hERG) potassium channel (human, UniProt Q12809); assay: primary screen, population patch clamp on CHO cells stably expressing hERG
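Further: peak tail current of the secondary pulse compared with the same well before compound.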

Sequence of human ether-à-go-go-related gene (hERG) potassium channel (Q12809 whole entry, looked up): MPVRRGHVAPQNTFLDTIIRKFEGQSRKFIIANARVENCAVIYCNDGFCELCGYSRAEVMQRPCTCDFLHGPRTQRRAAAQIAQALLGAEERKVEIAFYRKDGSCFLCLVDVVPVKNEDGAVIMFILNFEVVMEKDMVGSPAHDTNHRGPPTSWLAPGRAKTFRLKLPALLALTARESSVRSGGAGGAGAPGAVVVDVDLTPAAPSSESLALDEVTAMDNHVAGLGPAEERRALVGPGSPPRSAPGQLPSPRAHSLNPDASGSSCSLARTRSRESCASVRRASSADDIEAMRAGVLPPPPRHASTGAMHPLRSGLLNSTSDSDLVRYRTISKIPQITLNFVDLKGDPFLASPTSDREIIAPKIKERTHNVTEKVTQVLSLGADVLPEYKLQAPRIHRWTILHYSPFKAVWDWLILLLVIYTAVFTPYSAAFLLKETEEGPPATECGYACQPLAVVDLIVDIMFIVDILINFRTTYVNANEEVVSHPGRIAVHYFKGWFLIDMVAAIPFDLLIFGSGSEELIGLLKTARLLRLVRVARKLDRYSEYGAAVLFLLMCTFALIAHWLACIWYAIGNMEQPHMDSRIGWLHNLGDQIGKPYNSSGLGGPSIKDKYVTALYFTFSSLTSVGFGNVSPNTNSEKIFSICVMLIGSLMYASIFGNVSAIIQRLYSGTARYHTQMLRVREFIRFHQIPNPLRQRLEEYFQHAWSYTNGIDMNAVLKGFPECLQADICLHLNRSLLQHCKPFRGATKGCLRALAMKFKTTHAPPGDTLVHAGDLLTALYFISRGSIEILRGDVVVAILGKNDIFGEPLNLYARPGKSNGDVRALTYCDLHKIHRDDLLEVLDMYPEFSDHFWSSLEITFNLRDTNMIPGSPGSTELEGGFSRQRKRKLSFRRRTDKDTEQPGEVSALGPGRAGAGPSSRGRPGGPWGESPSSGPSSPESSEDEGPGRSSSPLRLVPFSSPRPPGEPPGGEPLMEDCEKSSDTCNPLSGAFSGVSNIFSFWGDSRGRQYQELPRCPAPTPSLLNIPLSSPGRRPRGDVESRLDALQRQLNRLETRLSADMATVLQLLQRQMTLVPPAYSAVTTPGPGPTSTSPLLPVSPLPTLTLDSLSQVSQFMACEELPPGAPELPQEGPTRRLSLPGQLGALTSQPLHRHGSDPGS

Which “hERG current change (%, negative = inhibition) at 10uM” value does the source give for O=C(Nc1nnc(SCc2c(Cl)cccc2Cl)s1)C1CCCO1 (stereo not shown) here?
The value was -22.9%.

Which “hERG current change (%, negative = inhibition) at 10uM” value does the source give for CCn1nc(C(=O)OC(C(=O)c2c[nH]c3ccccc23)c2ccccc2)c2ccccc2c1=O (stereo not shown) here?
Its value is 6.71%.

With Br.N=C(N)SCc1nc2ccccc2c(=O)n1-c1ccccc1 as the compound, how does the “hERG current change (%, negative = inhibition) at 10uM” value read?
Its value is -0.619%.

How did the “hERG current change (%, negative = inhibition) at 10uM” value turn out when Nc1cccc(-c2csc(-n3ncc(C(=O)O)c3C(F)(F)F)n2)c1 was run?
The value was 8.11%.

With O=C(NCCc1ccccc1F)C1CCC(=O)N(Cc2ccccc2F)C1 (stereo not shown) as the compound, how does the “hERG current change (%, negative = inhibition) at 10uM” value read?
The value was 13.2%.

How did the “hERG current change (%, negative = inhibition) at 10uM” value turn out when CCN(C(=O)CSc1nnc2ccccn12)c1c(N)n(Cc2ccccc2)c(=O)[nH]c1=O was run?
The value was 14.5%.

For Cc1ccc(C(=O)O)cc1-n1c(C)cc(C=O)c1C, which “hERG current change (%, negative = inhibition) at 10uM” value is on record?
Its value is 28.2%.

How did the “hERG current change (%, negative = inhibition) at 10uM” value turn out when O=c1c2c([nH]c3ccccc13)CCCCC2 was run?
The value was -7.34%.

With O=C1COc2ccc(S(=O)(=O)N3CCN(c4cccc(Cl)c4)CC3)cc2N1 as the compound, how does the “hERG current change (%, negative = inhibition) at 10uM” value read?
Its value is 8.44%.

Which “hERG current change (%, negative = inhibition) at 10uM” value does the source give for N/C(=N\OC(=O)c1ccccc1Cl)c1ccccc1 here?
The value was -16.2%.

For Cc1cc(C)n(-c2ccc(Cl)c(C(=O)Nc3ccc(-c4nnc5n4CCCCC5)cc3)n2)n1, which “hERG current change (%, negative = inhibition) at 10uM” value is on record?
The value was 2.05%.

For COc1ccc(-n2c(C)c(C(=O)O)c3cc(OC)c4ccccc4c32)cc1, which “hERG current change (%, negative = inhibition) at 10uM” value is on record?
Its value is 10.5%.

CCOC(=O)c1cnn2cc(-c3[nH]ncc3[N+](=O)[O-])cnc12 was tested. Which “hERG current change (%, negative = inhibition) at 10uM” value did it give?
Its value is 13.8%.

Which “hERG current change (%, negative = inhibition) at 10uM” value does the source give for O=C(Cn1nnc2ccccc2c1=O)NCCc1ccc(F)cc1 here?
The value was 6.36%.

With COCCCNC(=O)Cn1c(=O)n(Cc2ccccc2Cl)c(=O)c2cc(OC)c(OC)cc21 as the compound, how does the “hERG current change (%, negative = inhibition) at 10uM” value read?
The value was 9.48%.

For CC(C)C(=O)Nc1sc2c(c1C(N)=O)CCN(Cc1ccccc1)C2.Cl, which “hERG current change (%, negative = inhibition) at 10uM” value is on record?
Its value is -108%.

For CCOC(=O)c1c(NC(=O)C2C3C=CC(C3)C2C(=O)O)sc2c1CC(C)CC2 (stereo not shown), which “hERG current change (%, negative = inhibition) at 10uM” value is on record?
The value was 19.6%.

Which “hERG current change (%, negative = inhibition) at 10uM” value does the source give for N#CC1=C(N)NC(SCc2ccccc2)=C(C#N)C12CCCC2 here?
Its value is -20%.

How did the “hERG current change (%, negative = inhibition) at 10uM” value turn out when O=c1cnnc(SCc2ccc([N+](=O)[O-])cc2)[nH]1 was run?
The value was -41%.

With O=C(O)CC(c1cccc2ccccc12)n1cccc1 (stereo not shown) as the compound, how does the “hERG current change (%, negative = inhibition) at 10uM” value read?
Its value is 6.08%.

How did the “hERG current change (%, negative = inhibition) at 10uM” value turn out when Cc1ccc2nc(SCc3nnc(-c4ccccc4)o3)[nH]c2c1 was run?
The value was -17.4%.

With COc1ccc(CNC(=O)COC(=O)c2cncc(Br)c2)cc1 as the compound, how does the “hERG current change (%, negative = inhibition) at 10uM” value read?
Its value is -7.49%.

How did the “hERG current change (%, negative = inhibition) at 10uM” value turn out when COc1ccc(-c2nnn(CC(=O)N(CCCO)C(C(=O)NC3CCCC3)c3ccncc3)n2)cc1 (stereo not shown) was run?
The value was 12.3%.

For CN(C)/C=C/C(=O)/C=C/c1cn(-c2ncc(C(F)(F)F)cc2Cl)c2ccccc12, which “hERG current change (%, negative = inhibition) at 10uM” value is on record?
Its value is 5.91%.

Cc1nn(Cc2c(Cl)cccc2Cl)c(C)c1NC(=O)c1cnn2c(C(F)F)cc(-c3ccccc3)nc12 was tested. Which “hERG current change (%, negative = inhibition) at 10uM” value did it give?
Its value is 13.6%.

COc1cccc(CN(C(=O)COc2ccccc2[N+](=O)[O-])C2CCS(=O)(=O)C2)c1 (stereo not shown) was tested. Which “hERG current change (%, negative = inhibition) at 10uM” value did it give?
Its value is -42%.

With CCOC(=O)c1sc(NC(=O)c2cccc(S(=O)(=O)N3CCc4ccccc43)c2)c(C#N)c1C as the compound, how does the “hERG current change (%, negative = inhibition) at 10uM” value read?
The value was 3.25%.

For O=C(Nc1ccc2ccccc2n1)c1ccccc1, which “hERG current change (%, negative = inhibition) at 10uM” value is on record?
The value was 1.09%.

For COc1ccc(OCC(O)Cn2c(=N)n(CCN3CCOCC3)c3ccccc32)cc1.Cl (stereo not shown), which “hERG current change (%, negative = inhibition) at 10uM” value is on record?
Its value is -34.7%.

COc1ccc(Cn2c(SC)nc3ccccc32)cc1[N+](=O)[O-] was tested. Which “hERG current change (%, negative = inhibition) at 10uM” value did it give?
The value was 13.9%.

For COc1cc(OC)c2c(C)cc(=O)oc2c1C(CCN1CCN(c2ccccc2)CC1)c1ccc2c(c1)OCO2 (stereo not shown), which “hERG current change (%, negative = inhibition) at 10uM” value is on record?
Its value is -11.1%.

With CC1=C(C)CC2C(=O)N(Cc3ccccc3)C(=O)C2C1 (stereo not shown) as the compound, how does the “hERG current change (%, negative = inhibition) at 10uM” value read?
Its value is -1.45%.

How did the “hERG current change (%, negative = inhibition) at 10uM” value turn out when O=C(Cc1ccccc1)NCc1ccc2c(c1)OCO2 was run?
Its value is 3.22%.

How did the “hERG current change (%, negative = inhibition) at 10uM” value turn out when O=C(/C=C/c1ccccc1)NCCSCc1ccccc1Cl was run?
The value was 14.9%.

For Cn1c(=O)c2c(nc(Oc3ccccc3N)n2C)n(C)c1=O, which “hERG current change (%, negative = inhibition) at 10uM” value is on record?
The value was 27.6%.

Which “hERG current change (%, negative = inhibition) at 10uM” value does the source give for O=C(NCc1ccccc1)c1ccc(N2C(=O)C3CCCCC3C2=O)cc1 (stereo not shown) here?
The value was 7.98%.

Which “hERG current change (%, negative = inhibition) at 10uM” value does the source give for COc1ccc(C(=O)N2CCN(C3CCN(Cc4ccccc4)CC3)CC2)cc1OC here?
Its value is -42.8%.

For COC(=O)COc1ccc(C2NC(=O)NC(C)=C2C(=O)NCc2ccccc2)cc1OC (stereo not shown), which “hERG current change (%, negative = inhibition) at 10uM” value is on record?
The value was -2.92%.

Which “hERG current change (%, negative = inhibition) at 10uM” value does the source give for CCOC(=O)c1c(-c2ccc(C)o2)csc1NC(=S)NC(=O)c1ccc(F)cc1 here?
Its value is 2.75%.

CCOC(=O)N1CCN(C(=O)CCCn2c(=S)[nH]c3ccc(Br)cc3c2=O)CC1 was tested. Which “hERG current change (%, negative = inhibition) at 10uM” value did it give?
The value was -46.7%.

Which “hERG current change (%, negative = inhibition) at 10uM” value does the source give for N#Cc1cc2c(nc1SCc1ccncc1)CCC2 here?
Its value is -21.9%.

How did the “hERG current change (%, negative = inhibition) at 10uM” value turn out when CCC(C)N(C(=O)COC(=O)CCc1c[nH]c2ccccc12)C1CCS(=O)(=O)C1 (stereo not shown) was run?
The value was -10.4%.

How did the “hERG current change (%, negative = inhibition) at 10uM” value turn out when CCCOc1ccc(S(=O)(=O)N2CCCC2)cc1[N+](=O)[O-] was run?
The value was -30.1%.

How did the “hERG current change (%, negative = inhibition) at 10uM” value turn out when CCOC(=O)C(CC)Sc1ccc2nnc(-c3cccnc3)n2n1 (stereo not shown) was run?
The value was -47.7%.

With N#C/C(=C\c1ccc(OCc2ccccc2)cc1)C(=O)Nc1ccc(C(=O)O)cc1 as the compound, how does the “hERG current change (%, negative = inhibition) at 10uM” value read?
Its value is 8.19%.

Cc1nc2nc(SCC(=O)NCCCN3CCCC(C)C3)nn2c(C)c1Cc1ccccc1Cl (stereo not shown) was tested. Which “hERG current change (%, negative = inhibition) at 10uM” value did it give?
Its value is 2.15%.

Cc1ccc(NC(=S)NCCc2ccc(S(N)(=O)=O)cc2)cc1C was tested. Which “hERG current change (%, negative = inhibition) at 10uM” value did it give?
The value was -7.61%.

Which “hERG current change (%, negative = inhibition) at 10uM” value does the source give for COc1ccccc1NC(=O)C1=C(C)NC(=O)NC1c1ccccc1F (stereo not shown) here?
Its value is 2.86%.

Which “hERG current change (%, negative = inhibition) at 10uM” value does the source give for CCCn1c(Nc2cccc(OC)c2)nc2ccccc21 here?
Its value is 14.8%.

How did the “hERG current change (%, negative = inhibition) at 10uM” value turn out when CC1CCCCC12NC(=O)N(CC(=O)NC1CCCc3ccccc31)C2=O (stereo not shown) was run?
The value was 0.596%.

N#Cc1ccccc1CSc1nc2ccsc2c(=O)n1Cc1ccccn1 was tested. Which “hERG current change (%, negative = inhibition) at 10uM” value did it give?
The value was -10.9%.

For C=CCn1c(N2CCCC2)nc2c1c(=O)n(C)c(=O)n2C, which “hERG current change (%, negative = inhibition) at 10uM” value is on record?
The value was 10.3%.

CC(/C=C\C=C\c1ccccc1)=N\NC(=O)c1cncc(Br)c1 was tested. Which “hERG current change (%, negative = inhibition) at 10uM” value did it give?
Its value is 0.6%.

How did the “hERG current change (%, negative = inhibition) at 10uM” value turn out when COCCCNc1nc2c(c(=O)[nH]c(=O)n2C)n1CC(O)COc1ccccc1C (stereo not shown) was run?
Its value is -7.62%.

O=C(CCc1nnc(-c2ccc(-c3ccccc3)cc2)o1)N1CCCCC1 was tested. Which “hERG current change (%, negative = inhibition) at 10uM” value did it give?
The value was -4.15%.
